# Results from PubChem BioAssay AID1963576 (National Center for Advancing Translational Sciences (NCATS), 2024).
# Among all 46,000 compounds or so, about 60 (0.1%) were called active. About 3% were inconclusive and are not listed. Calls follow the shape of the dose curve; as a rule, active = well fitted inhibition curve with a large enough effect; inconclusive = small, poorly fitted or top-dose-only effect; inactive = no such curve, though single readings can be large or run the other way. This is one part of the list.
# Test: Primary qHTS assay for Inhibitors of ovarian cancer metastasis using an organotypic tumor microenvironment (TME) model. Also: nearly all actives have a fitted effect of over 65% in size.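 As to activity change, negative = inhibition: plate controls were DMSO wells for no effect and tomatine positive control wells for full effect.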
# Settings: SKOV3ip1-GFP adhesion/invasion on 3D omental model, fluorescence; series mostly up to 45.8 µM; activity change, negative = inhibition: at the top concentration
# How it was run: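 A 3D layer of primary human omental fibroblasts, mesothelial cells, fibronectin and collagen I, grown 48 hr, received SKOV3ip1-GFP cells in serum-free medium plus compounds at 0.36-46 umol/L. After 2 hr RT and 16 hr 37 C, fixed adherent GFP cells were counted; normalized to DMSO and tomatine.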
SMILES,outcome,"activity change, negative = inhibition"
Cc1ccc(CNC(=O)c2nc(SCc3ccc(F)cc3)ncc2Cl)cc1,inactive,
COc1ccc(NC(=O)Cn2c(=O)n(-c3ccccc3)c(=O)c3c4c(sc32)CCCC4)c(OC)c1,inactive,
Cc1nn2c(=O)cc(COC(=O)c3cccc(NC(=O)COc4ccccc4Cl)c3)nc2s1,inactive,
Cc1ccc(C(=O)c2cn(Cc3cccc(C)c3)c3nc(C)ccc3c2=O)cc1,,inactive: 7.07%
O=C(C=Cc1ccc(CN(CCO)CCc2c[nH]c3ccccc23)cc1)NO,,inactive: -1.67%
COC(=O)c1cc(S(=O)(=O)N2CCN(c3ccc(OC)cc3)CC2)c[nH]1,,inactive: 6.97%
Cc1cc(C)n2c(Nc3ccc4c(c3)OCCO4)c(-c3ccc(Cl)cc3)nc2n1,,inactive: 9.1%
COc1ccc(S(=O)(=O)n2nc(C)c(S(=O)(=O)N3CCCCCC3)c2C)cc1,inactive,
CC(C)CC(=O)Nc1nc2nc(-c3ccccc3)cc(=O)n2[nH]1,,inactive: 1.16%
CCCCOc1ccc(C2=NC(c3cccs3)=Nc3ccc(CC)cc3N2)cc1,,inactive: 0.319%
COC(=O)c1c(Oc2ccc(OC)cc2)nnc(-c2ccccc2)c1-c1ccccc1,,inactive: -13.1%
CCCN1CCN(C(=O)Cn2c(-c3cccs3)cc3ccccc32)CC1,,inactive: -19.4%
COCCCNC(=O)C1CCN(C(=O)c2cnn(-c3ccccc3)c2-n2cccc2)CC1,inactive,
Cc1ccc(NC(=O)c2cnc(N3CCCCC3)c3ccccc23)c(C)c1,,inactive: 7.28%
Cc1cc(N2CCCCC2)nc2ccc(NC(=O)/C=C/c3ccc(OC(C)C)cc3)cc12,,inactive: -11.6%
Cc1ccc(CNC(=O)c2cccn2-c2nnc(N3CCCC3)s2)cc1,,inactive: -2.32%
Cc1ccc2c(CC(=O)Nc3ccc(S(=O)(=O)N4CCCCC4C)cc3)coc2c1 (stereo not drawn),,inactive: -6.96%
Cn1cc(-c2[nH]c3cc(NC(=O)[C@H](N)C4CCCCC4)cc4c3c2C=NNC4=O)cn1,,inactive: 21.9%
COc1cccc(NC(=O)CN2C(=O)CSc3ccc(S(=O)(=O)N4CCCC4)cc32)c1,inactive,
Cc1cccc(NC(=O)N2CCN(C(=O)c3nsc4ccccc34)CC2)c1C,inactive,
Cc1ccc(N2C(=O)NC(NS(=O)(=O)c3ccccc3)(C(F)(F)F)C2=O)cc1C (stereo not drawn),inactive,
CCOc1ccccc1CNC(=O)c1ccc(N2Cc3ccccc3Oc3ncccc32)s1,,inactive: 7.69%
COc1ccc(CNC(=O)CCCn2nc(C)c3sc4ccccc4c3c2=O)cc1OC,,inactive: -3.84%
O=C(Nc1ccc(Br)cc1F)C1CCN(c2nc3ccccc3[nH]2)CC1,,inactive: -9.72%

SMILES,outcome,"activity change, negative = inhibition"
CCC1CCCCN1CCCNC(=O)CN1C(=O)c2cccnc2Oc2ccc(C)cc21 (stereo not drawn),,inactive: -7.18%
COC(=O)COc1ccc2oc(-c3ccc(OC)cc3)cc(=O)c2c1,inactive,
COc1ccc(N2CCN(C(=O)c3cnn(-c4ccc(F)cc4)c3-n3cccc3)CC2)cc1,inactive,
Clc1ccc2c(c1)-c1c(cnc3cc(-c4ccccc4)nn13)CO2,inactive,
CCOc1ccc2nc(N3CCC(C(=O)Nc4ccccc4CC)CC3)sc2c1,,inactive: -9.59%
CC1CN(C(=O)N2CCC(C(=O)N3CCN(c4ccccc4)CC3)CC2)c2cc(Cl)ccc2O1 (stereo not drawn),inactive,
CSc1cccc(Nc2cc(C(=O)NCCc3ccc(Cl)cc3)c3ccccc3n2)c1,inactive,
Cc1ccc(CNC(=O)CCc2c(C)c3ccc(O)c(C)c3oc2=O)cc1,,inactive: 0.939%
O=C1CCCc2cc(S(=O)(=O)N3CCCC(C(=O)Nc4ccc(F)c(Cl)c4)C3)ccc2N1 (stereo not drawn),inactive,
CCOc1cc2[nH]c(=O)n(CCCCC(=O)N3CCN(c4ccc(OC)cc4)CC3)c(=O)c2cc1OCC,,inactive: -1.15%
CCOc1ccc(C(=O)Nc2nnc(S(=O)(=O)Nc3ccccc3)s2)cc1,,inactive: 29.9%
Cc1ccc(S(=O)(=O)c2[nH]c(-c3ccccc3)nc2SCC(N)=O)cc1,,inactive: -28.4%
O=C(Cn1c(=O)n(CCCS(=O)(=O)C2CCCCC2)c(=O)c2ccccc21)Nc1ccccc1C(F)(F)F,inactive,
COc1ccc(NC(=O)CCn2c(=O)c3cccn3c3cccnc32)cc1Cl,,inactive: -1.73%
CC1(C)CNc2cc(NC(=O)c3cccnc3NCc3ccncc3)ccc21,,inactive: 5.95%
Cc1ccc(CCNc2ncnc3onc(-c4ccc(F)cc4)c23)cc1,,inactive: 4.3%
COc1cccc(CNC(=O)Cn2c(=O)n3nc(-c4cccc(F)c4)nc3c3ccccc32)c1,,inactive: -2.43%
CCN(CC)C(=O)c1sc2c(c1C)c(=O)n(-c1ccc(Cl)c(Cl)c1)c(=O)n2Cc1cc(=O)n2ccccc2n1,,inactive: -9.83%
CC(C)C(=O)N1c2nc(-c3ccco3)nn2C2(CCCCC2)[C@@H]2CCCC[C@@H]21,,inactive: -13.6%
CC(=O)Nc1ccc(S(=O)(=O)N2CCC(c3nnc(-c4ccc(C)cc4)o3)CC2)cc1,,inactive: -3.81%
Cc1oc2c(cc(NS(=O)(=O)c3ccc(C(C)C)cc3)c3ccccc32)c1C(=O)O,,inactive: 4.05%
COc1ccc(-n2ncc3c2ncn2nc(COc4ccc(Cl)cc4)nc32)cc1,,inactive: 1.51%
COc1ccc(CNC(=O)C2=C(C)C(=O)OC23CCCCC3)cc1,,inactive: 1.79%
CCCSc1nnc2c(n1)OC(c1ccc(Br)s1)Nc1ccccc1-2 (stereo not drawn),,inactive: 3.99%
